This is one part of the list. The energies were worked out here from pooled read counts, against the library average; single values are noisy.
These sequences were tested against T1, Pho4 (S. cerevisiae) (UniProt P07270) (assay: relative binding free energy (BET-seq); higher = weaker binding). Conditions: reference: library average.
T1 sequence: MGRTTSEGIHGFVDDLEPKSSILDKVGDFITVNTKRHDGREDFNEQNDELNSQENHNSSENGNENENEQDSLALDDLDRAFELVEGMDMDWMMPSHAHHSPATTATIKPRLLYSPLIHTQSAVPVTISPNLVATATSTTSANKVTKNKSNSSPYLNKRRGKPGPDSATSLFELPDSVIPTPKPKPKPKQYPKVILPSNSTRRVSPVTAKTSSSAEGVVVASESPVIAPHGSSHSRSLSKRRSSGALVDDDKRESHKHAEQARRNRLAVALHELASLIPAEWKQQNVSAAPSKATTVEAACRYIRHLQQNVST

Relative binding free energy, 0.36 kcal/mol:
TTTTTCACGTGCTATC
GCATTCACGTGAGTGG

Relative binding free energy, 0.34 kcal/mol:
TTGTTCACGTGATAAA

Relative binding free energy, 0.46 kcal/mol:
GGACTCACGTGAGTTG
TTGCTCACGTGAGGCG

Relative binding free energy, -0.29 kcal/mol:
ATTAGCACGTGTTATA

Relative binding free energy, 0.42 kcal/mol:
GTTTTCACGTGAAATG

Relative binding free energy, 0.03 kcal/mol:
ATATGCACGTGTCAAT
AGAAACACGTGCGTGG
CTTATCACGTGGGCTT
AGATACACGTGGTATG
TTAAACACGTGTGCTT
TGAAACACGTGTTTTA

Relative binding free energy, 0.18 kcal/mol:
GCATGCACGTGAGGTT
TGCGACACGTGAGTTG
GTATTCACGTGATCTG
TTGCGCACGTGAAGTG

Relative binding free energy, -0.01 kcal/mol:
GGTGGCACGTGTTATT
ATAATCACGTGTTTAG
ACAGACACGTGTGGGT
ATTTGCACGTGGTGCG

Relative binding free energy, 0.07 kcal/mol:
TCTCGCACGTGTGGTT
AGTCGCACGTGTGGGG
CGGTCCACGTGTGGGA

Relative binding free energy, 0.39 kcal/mol:
GGCTTCACGTGTGTAA

Relative binding free energy, 0.08 kcal/mol:
AATGGCACGTGCTATT
TGCATCACGTGCTGGG
CTCGCCACGTGTGGTT
GGTGACACGTGTCTAG
AGACGCACGTGAGTGT

Relative binding free energy, 0.26 kcal/mol:
ATTATCACGTGATAAA
TGGGTCACGTGAATCG
ATTTTCACGTGGCGAG

Relative binding free energy, -0.11 kcal/mol:
TCTGGCACGTGTCTGG
TGATGCACGTGGGTAT
CTATGCACGTGGGAAG
CTGGCCACGTGTAGGG
TGATGCACGTGGCAGG
AAGGGCACGTGGTGGT
CTTAGCACGTGGTTAT

Relative binding free energy, -0.04 kcal/mol:
GTCGGCACGTGGGTTG
TTGTACACGTGTTAAA
TAGGACACGTGGGCAA
CCGTGCACGTGTGAGG

Relative binding free energy, -0.13 kcal/mol:
GGTCGCACGTGGCGTA
TGAAGCACGTGGTCAG
TGGGCCACGTGGCGGT

Relative binding free energy, 0.35 kcal/mol:
GACGTCACGTGATTGG
GTATGCACGTGAAAAT

Relative binding free energy, 0.27 kcal/mol:
GTGTTCACGTGATAAG
GGATTCACGTGTCGGG
GTTTACACGTGTAAAG
CTATTCACGTGGCTGG
CAATTCACGTGTATTT

Relative binding free energy, 0.19 kcal/mol:
AGACGCACGTGATTGG

Relative binding free energy, 0.11 kcal/mol:
GTTACCACGTGTCTGT
TTCATCACGTGGATGT

Relative binding free energy, -0.27 kcal/mol:
ACGAGCACGTGGGTTG

Relative binding free energy, -0.2 kcal/mol:
AGAGGCACGTGGGGTA
ATGAGCACGTGGGGTT

Relative binding free energy, 0.05 kcal/mol:
CAGGTCACGTGGCTTG
GTTGTCACGTGCGGTG
AGGTGCACGTGTTATT
AGTCTCACGTGGTATG

Relative binding free energy, 0.3 kcal/mol:
GGTGCCACGTGAAAGG
TTCTTCACGTGTGATG
TCATTCACGTGCGGGT
GGTGGCACGTGAGCTC

Relative binding free energy, 0.04 kcal/mol:
GCGTACACGTGGGAGT
AGGCACACGTGGATGG
TGTAGCACGTGACGGT
TAAATCACGTGTTGAT

Relative binding free energy, 0 kcal/mol:
AAGGACACGTGGCGTT
TTGTCCACGTGTTTGG

Relative binding free energy, -0.28 kcal/mol:
CCATGCACGTGGGGGG

Relative binding free energy, 0.31 kcal/mol:
CGTATCACGTGATTAT
GGTTTCACGTGGTTGT

Relative binding free energy, 0.33 kcal/mol:
TTTCACACGTGAGATG
TGTTTCACGTGGAGTT

Relative binding free energy, 0.47 kcal/mol:
TCGTTCACGTGATGTA

Relative binding free energy, 0.22 kcal/mol:
GTATGCACGTGAGTAG
GTGTTCACGTGGCTAT
GGGGTCACGTGCATGT

Relative binding free energy, -0.02 kcal/mol:
CTGGGCACGTGTTGGC
GGGTCCACGTGGTTGT

Relative binding free energy, 0.09 kcal/mol:
CTCGTCACGTGGTGGT
GGAGGCACGTGAGGTA
TAGTGCACGTGTAGAG
ATTGGCACGTGAGAGT
ATAGGCACGTGAGTGT

Relative binding free energy, 0.16 kcal/mol:
TTTGACACGTGAAGTA

Relative binding free energy, -0.12 kcal/mol:
TATCGCACGTGGGAGG
ACTGACACGTGCGGGG
CATTGCACGTGTTGTT
TGCGTCACGTGGGGAA

Relative binding free energy, 0.38 kcal/mol:
CGCTTCACGTGAGGGG
GGTTTCACGTGAAGGG

Relative binding free energy, 0.25 kcal/mol:
GTTAGCACGTGAATGG

Relative binding free energy, 0.01 kcal/mol:
TTTAGCACGTGCATTG
AGAGGCACGTGTGAGG
TTTAGCACGTGATGAA

Relative binding free energy, -0.07 kcal/mol:
TTACACACGTGTATGG
TATTGCACGTGGCAGT
TGCGGCACGTGCGTGC
TGATACACGTGGCAGG
ATTGACACGTGGGTGT

Relative binding free energy, -0.23 kcal/mol:
CGAGGCACGTGGGTGA
GGTTGCACGTGCCTGG
GGTAGCACGTGGTCTT
TGGCGCACGTGGCGTA

Relative binding free energy, -0.08 kcal/mol:
AATGTCACGTGGTCTA
ATTAGCACGTGGTCCG
AAAGCCACGTGGTTGG
AATGGCACGTGTAGGC

Relative binding free energy, 0.13 kcal/mol:
CTGAGCACGTGAGTGG
AGGTTCACGTGCAGGG
TAGGTCACGTGATATA
GGTGACACGTGTGGAA
TATGACACGTGTAAGG
GTTTACACGTGGCGGT
TTGCTCACGTGTAGCG

Relative binding free energy, -0.17 kcal/mol:
GTGCGCACGTGCGGGC
TGAAGCACGTGGGGGA

Relative binding free energy, 0.45 kcal/mol:
GTGCTCACGTGAGTGT

Relative binding free energy, 0.4 kcal/mol:
TGCTTCACGTGTAAGA
CATTTCACGTGTGATT

Relative binding free energy, -0.09 kcal/mol:
TAGTGCACGTGGAGTA
AGGCGCACGTGTGAAG
TTGCGCACGTGCTGGG
TCGTACACGTGGTGTA
ATGGGCACGTGTGTTC

Relative binding free energy, 0.2 kcal/mol:
GTACTCACGTGTTGAG

Relative binding free energy, 0.14 kcal/mol:
GTAGTCACGTGGGAAT
TGGGACACGTGATAAT
TTTAGCACGTGTAGAT
TATGTCACGTGATATG
GTGGTCACGTGTAGTT

Relative binding free energy, 0.06 kcal/mol:
GTTTACACGTGGTAAT
ATTGTCACGTGGAGAG
TGGTACACGTGTTGGC
GTCTCCACGTGGAGGG
GTTGTCACGTGGGCGA

Relative binding free energy, 0.15 kcal/mol:
TTACTCACGTGTTGTT
CGTGACACGTGAGTGG
GTCTTCACGTGGGTGG
TGATGCACGTGAGCGG
AAGTACACGTGTCGGT
TTGAACACGTGATGGT
TTGTCCACGTGAGAGG
CGGTACACGTGATGGT
ATGATCACGTGTTCTT
TGTTCCACGTGTGAGG

Relative binding free energy, 0.1 kcal/mol:
GGTGTCACGTGGATGT
TACGTCACGTGTGTGT
GTACTCACGTGGGGTT
ATCGGCACGTGTATTT

Relative binding free energy, 0.23 kcal/mol:
TTGTTCACGTGACTTT
TGTTTCACGTGTTCAT
TGGTTCACGTGGGAAC
AGGTTCACGTGGCTGG
CTGTTCACGTGGTTTT

Relative binding free energy, 0.21 kcal/mol:
GAAAGCACGTGATGGG
TGTATCACGTGTCTGG
GATTTCACGTGGTCGT

Relative binding free energy, -0.1 kcal/mol:
GTAGGCACGTGGCGCG
CTTGTCACGTGGGGCA
ATCGGCACGTGGGATT

Relative binding free energy, 0.28 kcal/mol:
GTTATCACGTGAATAT
AGGGTCACGTGAGTAA
GAGATCACGTGTGTGT
AGTTGCACGTGAGGAC
TGGCTCACGTGAGTGA
TTATTCACGTGGACGG
GTTGTCACGTGAAGAT

Relative binding free energy, -0.41 kcal/mol:
GTGGGCACGTGGGCCA

Relative binding free energy, -0.06 kcal/mol:
TGGTCCACGTGGGGAG
GAGAGCACGTGGGTAA
AAGTGCACGTGGAAGG
TGCTGCACGTGTGTAT

Relative binding free energy, -0.03 kcal/mol:
ATCGGCACGTGTTTAT
CTGGGCACGTGCAGTT
CGGTACACGTGGCGGG
ATTCGCACGTGCGGTG
GCTGTCACGTGGCTTG

Relative binding free energy, -0.19 kcal/mol:
GTACGCACGTGGTTGA
CAAGGCACGTGGGGAG

Relative binding free energy, -0.25 kcal/mol:
ACGAGCACGTGGGGAG

Relative binding free energy, -0.05 kcal/mol:
GAGAGCACGTGCTGTG
TGAGGCACGTGACGGT
TGTCGCACGTGTTTGC
AGTTGCACGTGGGAAT
CCGTGCACGTGGCTGG

Relative binding free energy, 0.24 kcal/mol:
GTAGTCACGTGATGTG
GGGTGCACGTGAGTAG
GGTTACACGTGTGAAT
TAAATCACGTGTCTGG
GTCCTCACGTGGGAGG
AGATGCACGTGTGAAA

Relative binding free energy, 0.17 kcal/mol:
GGTGTCACGTGAAGAT
TTTGTCACGTGAGATA
AGTGTCACGTGTGATA
GGCGTCACGTGTCTTG

Relative binding free energy, 0.43 kcal/mol:
AGGTTCACGTGAATGC

Relative binding free energy, -0.15 kcal/mol:
TGGGGCACGTGCAGTG
TTTTGCACGTGGTTCG
AGCGGCACGTGGGCCG

Relative binding free energy, -0.21 kcal/mol:
TGTCGCACGTGGTATA
TGCGGCACGTGTAGGT

Relative binding free energy, -0.18 kcal/mol:
AGTGGCACGTGCTATT

Relative binding free energy, -0.16 kcal/mol:
CTTCGCACGTGGGTTA
CGTACCACGTGGGTGG
AAGAGCACGTGTTGTA
GGGGGCACGTGCATGA

Relative binding free energy, 0.56 kcal/mol:
ATGATCACGTGAGATA

Relative binding free energy, 0.29 kcal/mol:
TTCTTCACGTGGTGAT
GTATACACGTGACGTT
GTGAACACGTGAGGAA
TAGGACACGTGAAGGT
GTAGACACGTGATTGA

Relative binding free energy, 0.02 kcal/mol:
AATTGCACGTGTGTGG
GTATGCACGTGTCTGT
ATGCGCACGTGATAGG
GGTACCACGTGTTATG
ATCAACACGTGTGGTG

Relative binding free energy, -0.14 kcal/mol:
AGGAACACGTGGGATG
ATAGGCACGTGGCATG

Relative binding free energy, 0.12 kcal/mol:
ATGAGCACGTGAATGT
CGTAACACGTGATTGT
GGGGTCACGTGCGTCT
CGTTGCACGTGAAGCG
